# Reference: PubChem BioAssay (Tox21)
# Where “and” joins values, the source holds several entries; their conditions need not be identical. Identical values can stand only once. Inconclusive means that the source gave no clear call. Such entries were picked first, then a sample of the others. Potencies of inconclusive entries are doubtful fits and often do not repeat. Calls of active or inactive are those of the source. Unless noted, calls come from the whole dose curve; as a rule, active = well fitted curve in the direction sought with a large enough effect in the repeat runs; inconclusive = weak or mixed curves; inactive = no such curve, though single readings can be large; an effect the other way counts as inactive or inconclusive.
# Tests used:
# [1] = biological target: Progesterone receptor (Homo sapiens) (UniProt P06401); assay: qHTS assay to identify small molecule antagonists of the progesterone receptor (PR) signaling pathway (AID 1346795; active = well fitted inhibition curve with a large enough effect in the signal ratio in the repeat runs, not every such curve was filed as active; inconclusive = weak or mixed curves; the % refers to the signal ratio; for activity change, negative = inhibition: % is set by controls: 0 for no effect and ±100 for the full control effect); conditions: PR-UAS-bla HEK293T, beta-lactamase FRET ratio, 16 h; activity change, negative = inhibition: at 92.4 µM (top of the series) unless noted
# How it was run: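 Beta-lactamase reporter, HEK293T PR-UAS-bla line; 2% charcoal-stripped FBS; 6 hr pre-incubation, 37C/5% CO2. Compound + R5020 1 nM final, 16 hr. LiveBLAzer B/G FRET substrate, 2 hr RT; fluorescence intensity read.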
# [2] = qHTS assay to identify small molecule antagonists of the progesterone receptor (PR) signaling pathway - cell viability counter screen (AID 1346798); note: nearly all actives have a fitted effect of over 50% in size
# How it was run: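 Luminescence readout (CellTiter-Glo, 30 min, RT) of viability in PR-UAS-bla HEK293T cells exposed to compound and R5020 agonist for 16 hr at 37C, 5% CO2; run in the same wells as the beta-lactamase reporter read.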
# [3] = qHTS assay to identify small molecule agonists of the progesterone receptor (PR) signaling pathway - cell viability counter screen (AID 1346799; calls by dose curve; note: nearly all actives have a fitted effect of over 45% in size)
# How it was run: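 HEK293T PR-UAS-bla, 3,000 cells/well, 2% charcoal-stripped FBS; 6 h settle, compound 16 h at 37C/5% CO2; LiveBLAzer 2 h RT, then CellTiter-Glo 30 min RT, luminescence read.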
# [4] = qHTS assay to identify small molecule agonists of the TGF-beta/Smad signaling pathway (AID 1346859; active = well fitted activation curve with a large enough effect in the signal ratio in the repeat runs, not every such curve was filed as active; inconclusive = weak or mixed curves; the % refers to the signal ratio; for activation: % is set by controls: 0 for no effect and ±100 for the full control effect); conditions: SBE-bla HEK293T, TGF-beta/Smad beta-lactamase reporter, 5 h; activation: at 76.8 µM (top of the series)
# How it was run: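 Read-out: fluorescence at 460 and 530 nm (405 nm excitation) after a 2 hr room-temperature incubation with beta-lactamase FRET substrate. SBE-bla HEK 293T cells had been treated with test compounds for 5 hr at 37 C.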
# [5] = qHTS assay to identify small molecule antagonists of the TGF-beta/Smad signaling pathway (AID 1346924; active = well fitted inhibition curve with a large enough effect in the signal ratio in the repeat runs, not every such curve was filed as active; inconclusive = weak or mixed curves; the % refers to the signal ratio); conditions: SBE-bla HEK293T, TGF-beta/Smad reporter, beta-lactamase ratio; activity, negative = inhibition: at 76.8 µM (top of the series) unless noted
# How it was run: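 Read-out was FRET-substrate fluorescence (405 nm excitation; 460 and 530 nm emission) after 2 h at room temperature. Before that, cells carrying a Smad-binding-element beta-lactamase reporter in HEK 293T had been stimulated 5 h at 37 C with TGF-beta1 (0.25 ng/mL addition solution) in the presence of test compound.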
# [6] = qHTS assay to identify small molecule antagonists of the TGF-beta/Smad signaling pathway - cell viability counter screen (AID 1346824); note: nearly all actives have a fitted effect of over 50% in size
# How it was run: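 SBE-bla HEK 293T cells, incubated overnight, then compound plus 0.25 ng/mL TGF-beta1 (stock added) for 5 hr at 37 C. Viability was read in the same wells by CellTiter-Glo luminescence after 30 min at room temperature.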
# [7] = qHTS assay to identify small molecule agonists of the TGF-beta/Smad signaling pathway - cell viability counter screen (AID 1346829); note: nearly all actives have a fitted effect of over 45% in size
# How it was run: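 Same-well cytotoxicity: CellTiter-Glo added after the 2 hr room-temperature beta-lactamase substrate step, luminescence measured 30 min later; cells had 5 hr of compound at 37 C.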
# [8] = Human pregnane X receptor (PXR) small molecule agonists, qHTS cell viability counter screen (AID 1346977); note: nearly all actives have a fitted effect of over 50% in size
# How it was run: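 Fluorescence read-out (CellTiter-Fluor) of viability in PXR-Luc HepG2 cells, multiplexed with the luciferase agonist read. Compounds in DMSO added after 5hr plating; 24hr total exposure at 37C, 5% CO2.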
# [9] = biological target: Thyrotropin-releasing hormone receptor (Homo sapiens) (UniProt P34981); assay: qHTS assay to identify small molecule antagonists of the thyrotropin-releasing hormone receptor (TRHR) signaling pathway (AID 1346877; active = well fitted inhibition curve with a large enough effect in the repeat runs, not every such curve was filed as active; inconclusive = weak or mixed curves)
# How it was run: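 Human TRHR in HEK293 cells; inhibition of the intracellular calcium rise triggered by 1 nM TRH was followed by fluorescence over 3 min. Compounds were run at 15 concentrations, three replicates each.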
# Potency is the fitted concentration of half-maximal effect; tags give direction and shape of the fitted curve or compound fluorescence and quenching.
# UniProt P06401, sequence (P06401 whole entry, looked up): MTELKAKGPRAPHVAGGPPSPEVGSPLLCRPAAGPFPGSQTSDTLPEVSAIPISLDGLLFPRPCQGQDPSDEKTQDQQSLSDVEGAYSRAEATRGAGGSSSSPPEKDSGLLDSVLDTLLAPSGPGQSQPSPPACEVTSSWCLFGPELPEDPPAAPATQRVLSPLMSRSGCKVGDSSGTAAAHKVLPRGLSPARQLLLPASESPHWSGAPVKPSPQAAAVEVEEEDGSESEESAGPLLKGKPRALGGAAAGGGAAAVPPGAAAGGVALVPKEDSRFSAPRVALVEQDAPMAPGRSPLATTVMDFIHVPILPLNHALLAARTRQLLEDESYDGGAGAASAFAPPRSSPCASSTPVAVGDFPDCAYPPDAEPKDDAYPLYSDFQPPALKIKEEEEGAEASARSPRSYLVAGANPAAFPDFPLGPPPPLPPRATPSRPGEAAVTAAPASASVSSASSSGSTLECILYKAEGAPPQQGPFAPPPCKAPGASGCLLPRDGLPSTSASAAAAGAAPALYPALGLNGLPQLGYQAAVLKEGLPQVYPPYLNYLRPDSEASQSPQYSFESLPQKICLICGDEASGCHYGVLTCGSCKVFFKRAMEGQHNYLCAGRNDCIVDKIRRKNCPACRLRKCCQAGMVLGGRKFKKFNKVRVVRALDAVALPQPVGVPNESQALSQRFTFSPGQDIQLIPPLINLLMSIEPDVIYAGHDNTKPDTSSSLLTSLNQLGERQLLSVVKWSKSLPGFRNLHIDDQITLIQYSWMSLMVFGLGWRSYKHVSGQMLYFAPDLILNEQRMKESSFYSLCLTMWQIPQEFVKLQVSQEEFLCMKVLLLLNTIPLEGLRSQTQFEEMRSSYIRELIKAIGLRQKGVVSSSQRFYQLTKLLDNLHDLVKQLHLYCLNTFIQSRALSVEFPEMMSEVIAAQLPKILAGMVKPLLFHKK
# UniProt P34981, sequence (P34981 whole entry, looked up): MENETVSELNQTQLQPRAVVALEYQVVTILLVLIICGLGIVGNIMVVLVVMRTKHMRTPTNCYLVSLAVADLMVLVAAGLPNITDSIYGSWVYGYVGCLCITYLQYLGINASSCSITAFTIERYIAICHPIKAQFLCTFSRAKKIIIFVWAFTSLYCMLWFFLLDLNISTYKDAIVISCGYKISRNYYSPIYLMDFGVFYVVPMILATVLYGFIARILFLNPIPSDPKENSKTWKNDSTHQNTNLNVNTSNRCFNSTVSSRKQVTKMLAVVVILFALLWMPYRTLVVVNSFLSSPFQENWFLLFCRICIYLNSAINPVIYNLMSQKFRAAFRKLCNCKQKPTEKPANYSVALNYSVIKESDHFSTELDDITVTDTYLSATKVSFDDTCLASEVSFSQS
structure (smiles),measurement,setting,value
C=CC(=O)OCC(O)COc1ccccc1 (configuration not stated),Potency,[1],"inconclusive: 1.22 µM [rising, single point]"
same,Potency,[2],"inconclusive: 77 µM [cytotoxic, single point]"
CCC(C)OC(=O)c1ccc(O)cc1 (configuration not stated),Potency,[1],active: 48.9 µM and active: 54.5 µM
same,Potency,[2],inconclusive: 77.4 µM
same,Potency,[3],inconclusive: 69 µM
NC1(c2ccc(-c3nc4ccn5c(=O)[nH]nc5c4cc3-c3ccccc3)cc2)CCC1,Potency,[1],inactive
same,Potency,[2],"inconclusive: 21.1 µM [cytotoxic, partial curve]"
same,Potency,[3],"inconclusive: 26.6 µM [cytotoxic, partial curve, poor fit]"
same,Potency,[4],"inconclusive: 6.74 µM [rising, partial curve]"
same,Potency,[5],"inconclusive: 9.52 µM [rising, full curve]"
c1ccc2cc3ccccc3cc2c1,"activity change, negative = inhibition",[1],inconclusive: -13.4%
same,Potency,[2],inactive
CCCCCCCCCCCCN,Potency,[1],inconclusive: 69.1 µM
same,Potency,[2],"inconclusive: 69.1 µM [cytotoxic, single point]"
same,Potency,[3],"inconclusive: 77.6 µM [cytotoxic, partial curve, poor fit] and inconclusive: 15.4 µM [cytotoxic, full curve] and inactive"
same,Potency,[4],"inconclusive: 24.5 µM [falling, full curve]"
C[C@H]1O[C@@H](O[C@H]2CC[C@@]3(C)[C@H](CC[C@@H]4[C@@H]3C[C@@H](O)[C@]3(C)[C@@H](C5=CC(=O)OC5)CC[C@]43O)C2)C[C@H](O)[C@@H]1O[C@H]1C[C@H](O)[C@H](O[C@H]2C[C@H](O)[C@H](O[C@@H]3O[C@H](CO)[C@@H](O)[C@H](O)[C@H]3O)[C@@H](C)O2)[C@@H](C)O1,Potency,[1],"inconclusive: 2.37 µM [rising, partial curve]"
same,Potency,[2],active: 0.298 µM
same,Potency,[3],active: 0.266 µM
same,Potency,[6],"inconclusive: 0.0601 µM [cytotoxic, full curve]"
same,Potency,[7],"inconclusive: 0.0756 µM [cytotoxic, full curve]"
same,Potency,[4],"inconclusive: 0.952 µM [rising, partial curve]"
same,Potency,[8],"inconclusive: 0.15 µM [cytotoxic, full curve]"
CCCCOCCOCCOCCO,Potency,[1],"inconclusive: 67.8 µM [falling, single point]"
same,Potency,[2],"inconclusive: 67.8 µM [cytotoxic, single point]"
COC(=O)NCCC[Si](OC)(OC)OC,Potency,[1],"inconclusive: 77 µM [rising, partial curve, poor fit]"
same,Potency,[2],"inconclusive: 68.6 µM [cytotoxic, single point]"
same,Potency,[3],"inconclusive: 68.6 µM [cytotoxic, single point]"
COc1cc([C@@H]2c3cc4c(cc3[C@@H](O[C@@H]3O[C@@H]5CO[C@@H](C)O[C@H]5[C@H](O)[C@H]3O)[C@H]3COC(=O)[C@H]23)OCO4)cc(OC)c1O,Potency,[1],active: 24.1 µM
same,Potency,[2],"inconclusive: 67.8 µM [cytotoxic, single point]"
same,Potency,[3],"inconclusive: 60.4 µM [cytotoxic, single point]"
same,Potency,[4],"inconclusive: 1.72 µM [rising, partial curve, poor fit]"
COc1ccc2nc(S(=O)Cc3ncc(C)c(OC)c3C)[nH]c2c1 (configuration not stated),Potency,[1],"inconclusive: 0.0531 µM [rising, full curve]"
same,"activity change, negative = inhibition",[1],inconclusive: -31.2%
same,Potency,[4],"inconclusive: 12.2 µM [rising, full curve]"
same,"activity, negative = inhibition",[5],inconclusive: 8.83% [at 35.3 µM]
same,Potency,[8],"inconclusive: 76 µM [cytotoxic, single point]"
Clc1ccc(C(Cn2ccnc2)OCc2ccsc2Cl)c(Cl)c1 (configuration not stated),Potency,[1],active: 3.35 µM
same,Potency,[2],active: 6.68 µM
same,Potency,[3],active: 8.41 µM
same,Potency,[4],"inconclusive: 26.8 µM [falling, single point]"
same,"activity, negative = inhibition",[5],inconclusive: -21.3% [at 35.3 µM]
same,Potency,[8],"inconclusive: 33.5 µM [cytotoxic, single point]"
CC1CCCNC1 (configuration not stated),Potency,[1],"inconclusive: 75.3 µM [falling, single point]"
same,Potency,[2],"inconclusive: 67.1 µM [cytotoxic, partial curve, poor fit]"
same,Potency,[3],"inconclusive: 67.1 µM [cytotoxic, single point]"
Cc1ccc(C(C)(C)C)c(O)c1,"activity change, negative = inhibition",[1],inconclusive: -19.7%
same,Potency,[2],"inconclusive: 52.7 µM [cytotoxic, single point]"
same,Potency,[3],"inconclusive: 66.4 µM [cytotoxic, single point]"
same,Potency,[4],inactive
same,Potency,[9],"inconclusive: 36.8 µM [inhibitor, partial curve, poor fit]"
same,Potency,[8],inactive
